Source: ChEMBL document CHEMBL4888484, “Replenishing the malaria drug discovery pipeline: Screening and hit evaluation of the MMV Hit Generation Library 1 (HGL1) against asexual blood stage Plasmodium falciparum ,using a nano luciferase reporter read-out” (2022)
Screen size: about 150,000 compounds; about 540 (0.36%) showed an effect of 50% or more. The list shows a part of the results.

tested on: Plasmodium falciparum; assay: Primary screen in NF54 nanoGlo assay, in single point, at 2uM, 72h; a lower Z score goes with more inhibition; assay type: functional, Erythrocyte; conditions: timepoint 72 hour

Structure (SMILES)	% Inhibition [%]	Z score
COc1ccc(Oc2cnn(-c3ccc(C)cc3)c(=O)c2Nc2cccc(C(=O)N(C)Cc3ccccc3)c2)cc1	2	-0.2
Cc1nc(C)c(C(=O)OCCN2CCCCC2)s1	-4	0.49
COc1cccc(CNC(=O)[C@@H]2C[C@@H](O)CN2C2CCN(C(=O)c3ccc(C)c(F)c3)CC2)c1	-3	0.43
O[C@H]1CCCN(c2ncccc2CNc2ncnc3c2CCC3)C1	-26	3.31
CC(C)(C)n1nccc1NC(=O)c1c(Cl)cccc1OCC1CC1	6	-1.01
Cc1nc2n(n1)CC(NC(C)C1CCCN1C(=O)OC(C)(C)C)CC2 (stereo not drawn)	-10	1.21
O=C1CCCCC1C1CCCCCN1C(=O)c1cccc(Oc2nccs2)c1 (stereo not drawn)	0	-0.03
Cc1cccc(CNC(=O)c2[nH]c3ccc(F)cc3c2NC(=O)c2ccccc2)c1	-1	0.25
COc1ncc(NC(=O)c2cccnc2)c(N(C)C)n1	3	-0.41
CC(=O)NC1(c2noc(CCC(=O)N3CCNC[C@@H]3C)n2)CCCCCC1	12	-1.6
Cc1nc(CS(=O)(=O)CCCO)sc1C	-8	1.5
O=C(NCCC1CCCCO1)NC1C2Cc3ccccc3C21 (stereo not drawn)	-1	0.13
O=C(c1cc2n(n1)CCN(C(=O)[C@@H]1COCCO1)C2)N1CCCC1	-3	0.33
CC[C@H](Oc1ccccc1C)c1nnc(C2CCOCC2)o1	-1	0.16
C=C(C)COc1ccccc1CN[C@@H](C)c1nncn1C	-3	0.55
CCS(=O)(=O)c1ccccc1N(C)CCN1CCOCC1	-14	1.86
COc1ccc(Cl)cc1NC(=O)CN1CCCN(c2ccc(C(F)(F)F)cn2)CC1	-8	1.03
COc1ccc(C(=O)N2CCC3(CC2)C[C@@H](N(C)Cc2ccccc2)CCO3)cn1	8	-1.27
CC(=O)NCc1csc(C2CCN(C(=O)c3cccc(Br)c3)CC2)n1	0	0.04
CC(C)[C@H](NC(=O)c1sccc1Cl)C1(CO)CCC1	-3	0.46
CCS(=O)(=O)NCCNC(=O)c1nnn(-c2cccc3ncccc23)c1C	-4	0.44
O=C(Cc1ccccc1)NCCOc1ccc2c(c1)OCO2	-4	0.64
C[C@]1(c2ccccc2)CCC(=O)N(CC2(CO)CCC2)C1	-2	0.42
Cc1cccn2c(CN3C[C@H](F)C[C@H]3C(N)=O)cnc12	7	-1.05
Cc1ccccc1C1CC1c1nc(-c2cnccn2)no1 (stereo not drawn)	-6	0.64
CCc1nsc(N[C@@H](C)c2n[nH]c(=O)n2C)n1	-12	1.99
CN(C)C(=O)NCC(=O)N1CCC([C@@H](O)CCc2ccccc2)CC1	3	-0.49

Structure (SMILES)	% Inhibition [%]	Z score
C[C@]1(C(=O)Nc2cccc3c2CNC3=O)CCNC(=O)C1	-1	0.07
NS(=O)(=O)c1ccc(CNC(=O)c2ccc(S(=O)(=O)N3CCCCCC3)cc2)cc1	-17	2.76
Cn1nnc2c(N3CCC4(CC3)OCCO4)ncnc21	-4	0.64
O=C(c1ccco1)N1CCC(F)(C(=O)N2CCOCC2)CC1	12	-1.5
CC(C)c1cc(-c2nc(-c3cn4ccccc4n3)no2)no1	-16	1.6
CC(C)N1CCCN(C(=O)C2CC3CCC2C3)CC1 (stereo not drawn)	-12	1.65
Nc1ccc(C(=O)N[C@H]2CC[C@@H]3CCC[C@@H]32)cn1	-6	1.12
O=C(COc1ccccc1)Nc1ccc(N2CCCN(Cc3ccccc3C(F)(F)F)CC2)nc1	-19	1.83
COc1ccc(CNC(=O)N2CCC(Cc3nncn3CC3CC3)CC2)cc1	-10	1.19
COCCN(CC(=O)Nc1cccc2[nH]ccc12)C(=O)OC(C)(C)C	-2	0.32
Cn1nccc1-c1nc(-c2ccc(N3CCCC3)cn2)no1	-7	1.43
COc1ccc(CC(=O)N2CCC(n3nc(C(C)C)cc3C(C)C)CC2)cc1OC	-18	2.02
O=C(N[C@@H](c1ccccc1)c1ccc2c3c(cccc13)CC2)C(c1ccccc1)c1ccccc1	6	-0.73
Cc1ccc(F)c(NC(=O)C2(C)CNC2)c1	-11	1.09
c1ccc(-c2nc(CN3CCOC4(CCCC4)C3)co2)cc1	-8	1.59
O=C1CCC(=O)N1CCOc1cc(F)cc(Br)c1	-5	0.73
Fc1ccc(OCc2nc(-c3nnn4c3CO[C@H](c3ccccc3Cl)C4)no2)cc1	4	-0.82
Cc1cc(S(N)(=O)=O)c(C(C)C)cc1Br	4	-0.62
CC(C)CNc1nc(C(=O)NCCc2ccccn2)cs1	-16	1.92
CC(C)(C)OC(=O)N1CCC(c2c(C(=O)N3CCN(c4ccc(Cl)cc4)CC3)cnn2-c2ccccc2)CC1	10	-1.8
Cc1ccc(OC(C)(C)C(=O)N[C@H]2CCOC[C@@H]2OCCN(C)C)cc1	-22	1.95
Cc1nn(C(C)C)c2nc(-c3cncn3C)[nH]c12	-12	1.58
CCOC(=O)N1CCC(N[C@@H](CC)c2nc(C)c[nH]2)CC1	13	-1.68
Cn1ccc(-c2cc(C(=O)N3CCC[C@]4(CC=CCC4)C3)no2)n1	-24	3.15
CCCc1noc([C@H](C)OC(=O)c2cc[nH]n2)n1	32	-0.43
C[C@@H](Cn1cccn1)C(=O)N1CCN(c2cnccn2)CC1	-3	0.49
Cc1ccc(-n2ncc3c(C(C)C)n[nH]c(=O)c32)cc1	-15	1.79
